{"source": "paper PMC4336329", "about": "(PLoS ONE, 2015)", "note": "In all, about 310,000 compounds went through this assay and about 14,000 (4.5%) showed an effect of 50% or more. The effect is printed as a negative number. The list shows a part of the results.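 Note: peak tail current of the secondary pulse compared with the same well before compound.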", "data": [{"target": "human ether-à-go-go-related gene (hERG) potassium channel (human, UniProt Q12809)", "sequence (Q12809 whole entry, looked up)": "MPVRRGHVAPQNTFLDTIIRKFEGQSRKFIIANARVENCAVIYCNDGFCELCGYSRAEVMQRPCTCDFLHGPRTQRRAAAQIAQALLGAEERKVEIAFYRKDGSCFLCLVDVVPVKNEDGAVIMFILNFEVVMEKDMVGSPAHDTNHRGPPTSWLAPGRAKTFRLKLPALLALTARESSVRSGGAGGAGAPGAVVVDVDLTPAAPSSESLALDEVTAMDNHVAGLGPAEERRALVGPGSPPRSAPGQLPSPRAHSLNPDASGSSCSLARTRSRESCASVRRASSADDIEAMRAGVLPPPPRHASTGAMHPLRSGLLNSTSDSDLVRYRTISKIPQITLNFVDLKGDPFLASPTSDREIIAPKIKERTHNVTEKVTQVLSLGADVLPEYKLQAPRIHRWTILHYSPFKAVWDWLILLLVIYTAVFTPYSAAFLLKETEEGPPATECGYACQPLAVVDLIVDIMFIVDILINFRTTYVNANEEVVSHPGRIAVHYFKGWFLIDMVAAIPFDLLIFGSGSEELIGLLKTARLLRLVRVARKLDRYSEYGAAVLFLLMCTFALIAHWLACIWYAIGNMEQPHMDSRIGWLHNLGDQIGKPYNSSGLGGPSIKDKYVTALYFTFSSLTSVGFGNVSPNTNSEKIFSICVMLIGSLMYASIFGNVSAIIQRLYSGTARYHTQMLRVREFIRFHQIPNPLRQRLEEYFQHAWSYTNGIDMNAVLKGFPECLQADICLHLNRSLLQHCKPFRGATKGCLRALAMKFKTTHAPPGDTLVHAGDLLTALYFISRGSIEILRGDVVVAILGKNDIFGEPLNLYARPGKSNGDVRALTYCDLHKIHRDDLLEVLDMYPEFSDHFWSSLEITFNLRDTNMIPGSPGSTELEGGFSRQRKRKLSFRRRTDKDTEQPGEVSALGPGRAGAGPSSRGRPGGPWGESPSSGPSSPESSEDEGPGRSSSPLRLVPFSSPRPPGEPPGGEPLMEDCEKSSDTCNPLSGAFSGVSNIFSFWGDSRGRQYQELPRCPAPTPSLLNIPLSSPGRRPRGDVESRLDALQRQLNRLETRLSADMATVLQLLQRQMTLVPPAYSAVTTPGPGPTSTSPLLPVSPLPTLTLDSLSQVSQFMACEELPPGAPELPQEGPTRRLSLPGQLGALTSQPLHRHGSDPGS", "assay": "primary screen, population patch clamp on CHO cells stably expressing hERG", "units": {"hERG current change (%, negative = inhibition) at 10uM": "%"}, "values": [{"smiles": "COc1cccc(-c2cc(C(F)(F)F)n3ncc(S(=O)(=O)c4ccccc4)c3n2)c1", "hERG current change (%, negative = inhibition) at 10uM": 3.2}, {"smiles": "CCN1CCCC1CN=Cc1c(O)n(-c2ccccc2)c(=O)c2ccccc12", "note": "(stereo not shown)", "hERG current change (%, negative = inhibition) at 10uM": -41.1}, {"smiles": "COc1ccc(C(=O)Nc2nnc(S(=O)(=O)N3CCCCCC3)s2)cc1OC", "hERG current change (%, negative = inhibition) at 10uM": -0.855}, {"smiles": "Cc1ccc(NC(=O)CN2C(=O)C(=O)N(C3CCCC3)C2=O)c(Cl)c1", "hERG current change (%, negative = inhibition) at 10uM": 5.52}, {"smiles": "N/C(Cc1ccc(Cl)cc1)=N\\OC(=O)C1CCCCC1", "hERG current change (%, negative = inhibition) at 10uM": 0.379}, {"smiles": "CC1CCN(C(=S)Nc2ccc(SC(F)F)cc2)CC1", "hERG current change (%, negative = inhibition) at 10uM": -33}, {"smiles": "COc1ccc(C)cc1NC(=O)COCC(=O)O", "hERG current change (%, negative = inhibition) at 10uM": -8.48}, {"smiles": "CN(C(=O)CNC(=O)OCc1ccccc1)c1ccc(Br)cc1C(=O)c1ccccc1Cl", "hERG current change (%, negative = inhibition) at 10uM": -0.016}, {"smiles": "C=CCNc1nc(C(=O)OCC(=O)c2ccc(Cl)cc2)cs1", "hERG current change (%, negative = inhibition) at 10uM": 6}, {"smiles": "O=C(Nc1cccc(C(=O)O)c1)/C(=C\\c1ccco1)NC(=O)c1ccccc1", "hERG current change (%, negative = inhibition) at 10uM": 22.1}, {"smiles": "Cc1ccc(C(CC(N)=O)c2ccco2)cc1", "note": "(stereo not shown)", "hERG current change (%, negative = inhibition) at 10uM": 3.51}, {"smiles": "Cc1cc(C)cc(N(CC(=O)N2CCn3c2nc2ccccc23)S(=O)(=O)c2c(C)noc2C)c1", "hERG current change (%, negative = inhibition) at 10uM": 5.91}, {"smiles": "O=C(COC(=O)C12CC3CC(CC(C3)C1)C2)Nc1ncc(Cl)cc1Cl", "hERG current change (%, negative = inhibition) at 10uM": 14.9}, {"smiles": "Brc1ccc2ncnc(NCc3ccccc3)c2c1", "hERG current change (%, negative = inhibition) at 10uM": -10.3}, {"smiles": "Cc1ccc(S(=O)(=O)N2CCN(Cc3nc4ccccc4[nH]3)CC2)cc1C", "hERG current change (%, negative = inhibition) at 10uM": -45.1}, {"smiles": "Cn1c(=O)c2c(nc(CN3CCN(C(=O)c4ccco4)CC3)n2Cc2ccc(F)cc2)n(C)c1=O", "hERG current change (%, negative = inhibition) at 10uM": -44.8}, {"smiles": "Cn1c(=O)cc(C(=O)N/N=C/c2ccc(F)cc2)[nH]c1=O", "hERG current change (%, negative = inhibition) at 10uM": 11.1}, {"smiles": "NC(=O)CN1C(=O)NC2(CCCc3sccc32)C1=O", "note": "(stereo not shown)", "hERG current change (%, negative = inhibition) at 10uM": 23.5}, {"smiles": "COc1ccc(S(=O)(=O)N2CCCC(N(C)CCc3ccccc3)C2)cc1OC", "note": "(stereo not shown)", "hERG current change (%, negative = inhibition) at 10uM": -66.5}, {"smiles": "C=CCSc1nc2ccccc2n2cnnc12", "hERG current change (%, negative = inhibition) at 10uM": -18.5}, {"smiles": "CCCCN(CCCNC(=O)c1ccc2nc(N3CCOCC3)sc2c1)Cc1ccccc1", "hERG current change (%, negative = inhibition) at 10uM": -62}, {"smiles": "CC(O)c1nc(C(C)O)n(CC(=O)c2ccccc2)n1", "note": "(stereo not shown)", "hERG current change (%, negative = inhibition) at 10uM": 19.2}, {"smiles": "O=C(COC(=O)CN1C(=O)c2ccccc2C1=O)NC1CCCC1", "hERG current change (%, negative = inhibition) at 10uM": 16}, {"smiles": "Cc1[nH]n(-c2ccccc2)c(=O)c1C=Nc1ccc2[nH]c(=O)[nH]c2c1", "hERG current change (%, negative = inhibition) at 10uM": 10.5}, {"smiles": "Cc1csc2c(=O)[nH]cnc12", "hERG current change (%, negative = inhibition) at 10uM": 8.59}, {"smiles": "Cc1ccc(N2CC(C(=O)NCCS(=O)(=O)N3CCN(c4ccccc4)CC3)CC2=O)cc1", "note": "(stereo not shown)", "hERG current change (%, negative = inhibition) at 10uM": 15.5}, {"smiles": "CCOc1ccc(C(=O)NCC(=O)OCC(=O)N2C(C)CCCC2C)cc1", "note": "(stereo not shown)", "hERG current change (%, negative = inhibition) at 10uM": -1.33}, {"smiles": "CC12CCC3c4ccc(O)cc4CCC3C1CCC2=O", "note": "(stereo not shown)", "hERG current change (%, negative = inhibition) at 10uM": -4.66}, {"smiles": "O=C(CSc1cn(CCNC(=O)c2ccccc2)c2ccccc12)NCc1ccco1", "hERG current change (%, negative = inhibition) at 10uM": -10.2}, {"smiles": "COC(=O)c1c(S(C)(=O)=O)nc(-c2ccccc2)[nH]c1=O", "hERG current change (%, negative = inhibition) at 10uM": -2.13}, {"smiles": "Cc1ccccc1C(=O)Nc1ccc(S(=O)(=O)Nc2onc(C)c2C)cc1", "hERG current change (%, negative = inhibition) at 10uM": -7.96}, {"smiles": "COc1cc2c(cc1OC)CN(C(=O)c1ccc(S(=O)(=O)N3CCCCCC3)cc1)CC2", "hERG current change (%, negative = inhibition) at 10uM": -27.3}, {"smiles": "Cc1nn(-c2ccccc2)c2sc(C(=O)OC3CCOC3=O)cc12", "note": "(stereo not shown)", "hERG current change (%, negative = inhibition) at 10uM": -7.55}, {"smiles": "CCn1c(SCC(=O)O)nnc1-c1ccc2[nH]c(C)c(C)c2c1", "hERG current change (%, negative = inhibition) at 10uM": -2.81}, {"smiles": "COc1cc(C)ccc1S(=O)(=O)N1CCN(C23CC4CC(CC(C4)C2)C3)CC1", "hERG current change (%, negative = inhibition) at 10uM": -11}, {"smiles": "COc1ccc(N2CCN(C(=O)CSc3nnc4c(C)cc5c(C)cc(C)cc5n34)CC2)cc1", "hERG current change (%, negative = inhibition) at 10uM": -33.8}, {"smiles": "O=C(COC(=O)Cc1ccsc1)Nc1ccc(Br)cc1", "hERG current change (%, negative = inhibition) at 10uM": 11.5}, {"smiles": "Cc1c(C(=O)NCc2cccs2)oc2ccc(Br)cc12", "hERG current change (%, negative = inhibition) at 10uM": 3.26}, {"smiles": "O=C(c1cccs1)N1CCCC(c2ccccc2)C1", "note": "(stereo not shown)", "hERG current change (%, negative = inhibition) at 10uM": -6.92}, {"smiles": "Cc1cc(NC(=O)CSc2n[nH]c(-c3ccc(Cl)cc3Cl)n2)no1", "hERG current change (%, negative = inhibition) at 10uM": -0.823}, {"smiles": "COc1ccc(C(NC(=O)C(C)C)c2c(O)ccc3ccccc23)cc1", "note": "(stereo not shown)", "hERG current change (%, negative = inhibition) at 10uM": 14.7}, {"smiles": "COc1ccc(OCC(=O)N/N=C(\\C)CC(=O)Nc2ccc(OC)cc2[N+](=O)[O-])cc1", "hERG current change (%, negative = inhibition) at 10uM": -93.8}, {"smiles": "CCN(CC)S(=O)(=O)c1ccc(C(=O)NC2=C(C(=O)OC)SCC2)cc1", "hERG current change (%, negative = inhibition) at 10uM": -6.75}, {"smiles": "O=C(CNC(=O)c1ccco1)N=Nc1c(O)n(CCc2ccccc2)c2ccccc12", "hERG current change (%, negative = inhibition) at 10uM": -38.3}, {"smiles": "O=C(C/C=N/OCc1ccc(F)cc1Cl)c1cnc(-c2ccccc2)s1", "hERG current change (%, negative = inhibition) at 10uM": 9.13}, {"smiles": "CC(C)CN(C(=O)COC(=O)CCC(=O)c1ccc(F)cc1)c1c(N)n(Cc2ccccc2)c(=O)[nH]c1=O", "hERG current change (%, negative = inhibition) at 10uM": -11.4}, {"smiles": "O=C(C[n+]1ccc(C(=O)NCc2ccccc2)cc1)c1ccc(Cl)cc1.[Br-]", "hERG current change (%, negative = inhibition) at 10uM": -71.3}, {"smiles": "Cc1ccc(Nc2c(-c3ccc(N4CCOCC4)cc3)nc3cnccn23)cc1", "hERG current change (%, negative = inhibition) at 10uM": -3.6}, {"smiles": "C[C@@H](C(=O)Nc1ccc2c(c1)OCCO2)n1nnc2ccccc2c1=O", "hERG current change (%, negative = inhibition) at 10uM": 16.4}, {"smiles": "COC(=O)c1ccc(C(=O)OC)c(NC(=O)Oc2ccccc2)c1", "hERG current change (%, negative = inhibition) at 10uM": 17.2}, {"smiles": "Cc1ccc(C)c(N2CCN(C(=O)CC3Sc4ccccc4NC3=O)CC2)c1", "note": "(stereo not shown)", "hERG current change (%, negative = inhibition) at 10uM": -0.241}, {"smiles": "CCCCCn1c(N)c(-c2nc3ccccc3s2)c2c([N+](=O)[O-])nn(CC)c(=O)c21", "hERG current change (%, negative = inhibition) at 10uM": 5.78}, {"smiles": "C=CCn1c(SCC(=O)Nc2ccccc2OC)nc(O)c(CC)c1=O", "hERG current change (%, negative = inhibition) at 10uM": -7.52}, {"smiles": "O=C(O)C(=O)O.O=C(c1cccc(Cl)c1)N1CCN(CCCc2ccccc2)CC1", "hERG current change (%, negative = inhibition) at 10uM": -45}, {"smiles": "CC(C)(NC(=O)c1cc(Cl)c2ccccc2c1O)C(=O)O", "hERG current change (%, negative = inhibition) at 10uM": 22.2}]}]}
